# Some of the results follow.
# Test system: S. aureus RN4220
# Experiment: growth inhibition call (relative growth <= 0.2)
# Conditions: 50 µM
row,Compound,growth inhibition call
1,O=C(C[C@@H]1CC[C@H]2[C@@H](COC[C@@H](O)CN2S(=O)(=O)c2ccccc2)O1)N[C@@H]1CCN(Cc2ccccc2)C1,inactive
2,O=C(C[C@H]1CC[C@H]2[C@@H](COC[C@H](O)CN2S(=O)(=O)c2ccc(F)cc2)O1)NCc1ccncn1,inactive
3,CSCc1nc(=O)cc(C(=O)O)[nH]1,inactive
4,C[C@@H]1CCCCO[C@@H](CN(C)Cc2ccccc2)[C@H](C)CN([C@H](C)CO)C(=O)c2cc(NC(=O)c3ccncc3)ccc2O1,inactive
5,C[C@@H]1CN([C@H](C)CO)C(=O)Cc2cc(NC(=O)CCN3CCOCC3)ccc2O[C@@H]1CN(C)S(=O)(=O)c1cccs1,inactive
6,Cc1ccc(S(=O)(=O)N2C[C@H](O)COC[C@H]3O[C@@H](CC(=O)NCCCN(C)C)CC[C@@H]32)cc1,inactive
7,COc1cccc2c1C(=O)c1c(O)c3c(c(O)c1C2=O)C[C@@](O)(C(C)=O)C[C@@H]3O[C@H]1C[C@H](N)[C@H](O)[C@H](C)O1,active
8,COc1ccc(NC(=O)Nc2ccc3c(c2)C(=O)N([C@@H](C)CO)C[C@H](C)[C@H](CN(C)Cc2ccc(C(=O)Nc4ccccc4N)cc2)O3)cc1,inactive
9,COc1ccc(C#Cc2ccc3c(c2)[C@]2(C(=O)N3)[C@H](c3ccc(O)cc3)N3[C@H](c4ccccc4)[C@H](c4ccccc4)OC(=O)[C@H]3[C@@H]2C(=O)O)cc1,inactive

# Reference: the antibiotic and cytotoxicity screens of Wong et al. (2023)
